Experimental data: PubChem BioAssay AID485364 (National Center for Advancing Translational Sciences (NCATS), 2010)
Screen size: about 360,000 compounds; about 11,000 (3.1%) were called active. The shares of active, inactive and inconclusive entries below differ from those in the screen. Calls follow the shape of the dose curve; as a rule, active = well fitted inhibition curve with a large enough effect; inconclusive = small, poorly fitted or top-dose-only effect; inactive = no such curve, though single readings can be large or run the other way. No potency is given beside an inconclusive call; the fits are too rough.
% is scaled to controls: 0 for no effect and ±100 for the full control effect; potency is read from the fitted curve at half-maximal effect; tags tell the direction and shape of the fitted curve.
Also: nearly all actives have a fitted effect of over 60% in size.

The molecules below were run against Schistosoma mansoni thioredoxin glutathione reductase (TGR) (UniProt Q962Y6) (assay: qHTS Assay for the Inhibitors of Schistosoma Mansoni Peroxiredoxins). Conditions: purified TGR, DTNB reduction, TNB absorbance 405 nm; activity change, negative = inhibition: at 114 µM (top of the series) unless noted.
From the text: Schistosomiasis is a major neglected tropical disease that currently affects over 200 million. It is caused by different species of flatworms, such as Schistosoma mansoni. Over the last century, drugs to treat the disease have evolved from potassium antimonyl tartrate, artemisinin, oxamniquine, to praziquantel, with praziquantel remaining the universally-used single drug of choice over the past three decades. However, transmission rates have changed little with praziquantel, and there is evidence for the development of drug resistant parasites. Because there is currently no suitable alternative therapy available, there is an urgent need to identify new targets and drugs for schistosomiasis treatment. Thioredoxin glutathione reductase (TGR), one uniquely positioned S. mansoni enzyme, has been identified as a major component of the worms' distinct and compressed antioxidant "firewall". TGR is a multifunctional enzyme that catalyzes the interconversion between reduced and oxidized forms of both glutathione (GSH) and thioredoxins, thus making it an attractive new antiparasitic target. Recently, a quantitative high-throughput screen of the NIH Molecular Libraries Small Molecule Repository (MLSMR, ~71K at the time of the screen in 2007) was performed using an assay that targeted both TGR and peroxiredoxin2 (Prx2, an H2O2-reducing enzymatic component of the S. mansoni redox "firewall") by following the decrease of NADPH fluorescence. […] Additional mechanistic link between exogenous NO donation and parasitic injury for the oxadiazole-2-oxide class of compounds was also expanded and better defined. Although the screen addressed both TGR and Prx2, the assay required post-screen target deconvolution for further characterization of the actives. In addition, the fluorescence assay was also subject to fluorescence interference from compound library members. We have developed a 1536-well-based kinetic HTS assay to address TGR alone. The assay followed the reduction of 5, 5'-dithiobis (2-nitrobenzoic acid) (DTNB) (Ellman's reagent) by NADPH and measured the increase in absorbance at 412 nm of the reaction product, TNB. […] This assay format can be used to screen the current MLSMR collection (with >300K compounds available) to find novel TGR inhibitors. Furoxan is a good choice to serve as a positive control in the primary HTS assay.
Three microliters of reagents (100 uM NADPH and 20 nM TGR or 100 uM NADPH as no-enzyme control) were dispensed into 1,536-well black clear-bottomed plates. Compounds (23 nL) were transferred via Kalypsys pin tool equipped with 1536-pin array (10 nL slotted pins, V&P Scientific, San Diego, CA). The plates were then be incubated for 15 min at room temperature, and 1 uL aliquot of 500 uM NADPH were added, immediately followed by a 1 uL aliquot of 15 mM DTNB to start the reaction. The plate was transferred to a ViewLux high-throughput CCD imager (Perkin-Elmer, Wellesley, MA) where kinetic measurements of the TNB absorbance were acquired using a 405 excitation filter. Throughout the screen, reagent bottles and all liquid lines were made light-tight to minimize reagent degradation. All screening operations were performed on a fully integrated robotic system (Kalypsys, San Diego, CA) containing one RX-130 and two RX-90 anthropomorphic robotic arms (Staubli, Duncan, SC). Library plates were screened starting from the lowest and proceeding to the highest concentration, and a "double-dipping" step of the highest concentration was required to access higher concentrations of compounds. Vehicle-only plates, with DMSO being pin-transferred to the entire column 5-48 compound area, were inserted uniformly at the beginning and the end of each library in order to monitor for and record any shifts in the background, which can be affected by reagent dispensers or loss in enzyme activity overtime. […]
In the case of CC12CCC(=O)N1C(C(=O)Nc1cccc(S(=O)(=O)N3CCCCCC3)c1)CS2 (centres undefined), the “activity change, negative = inhibition” value is reported as inactive: -9.22%.
With COCc1cc(N2CCN(c3ccccc3F)CC2)nc(-c2ccccc2)n1 the Potency was inconclusive [inhibitor, single point].
In the case of O=C(O)c1cc(S(=O)(=O)NCc2ccco2)c(Cl)cc1Cl, the Potency is reported as inconclusive [inhibitor, single point].
In the case of COCc1cc(C)nc2sc(C(=O)Nc3ccccc3C)c(N)c12, the Potency is reported as inconclusive [inhibitor, single point].
COc1ccc(NS(=O)(=O)c2ccc(NC(=S)NC(=O)c3cccnc3)cc2)nn1 was tested, and the Potency was inconclusive [inhibitor, full curve].
In the case of Cc1nc2sc(C(c3ccco3)N3CCN(c4ccccc4)CC3)c(O)n2n1 (centres undefined), the Potency is reported as inconclusive [inhibitor, partial curve].
COc1ccc(OC)c2c1C(=O)C(Cl)=C(Cl)C2=O was tested, and the Potency was inconclusive [inhibitor, full curve, poor fit].
For Cc1nnc(NCc2ccccc2)c2c1nnn2Cc1ccc(F)cc1, the “activity change, negative = inhibition” value was inactive: 5.94%.
In the case of Cc1ccc(S(=O)(=O)C/N=C(/NC(=S)N(c2ccccc2)c2ccccc2)c2ccccc2)cc1, the Potency is reported as inconclusive [inhibitor, partial curve].
For O=Cc1c(NCc2ccc(Cl)cc2)c2ccccc2[nH]c1=O, the Potency was inconclusive [inhibitor, partial curve, poor fit].
With COC(=O)Cc1ccc(NC(=S)NCc2ccc(F)cc2)cc1 the Potency was inconclusive [inhibitor, single point].
c1ccc(CNc2nc(-c3cccnc3)nc3ccccc23)cc1 was tested, and the Potency was inconclusive [inhibitor, partial curve].
With CCOc1cc(CN2CCC(n3nccc3NC(=O)C3CC3)CC2)ccc1O the Potency was active: 39.8 µM.
With Cc1ccsc1/C=N/Nc1nc(Cl)c(Cl)cc1Cl the “activity change, negative = inhibition” value was inactive: 5.25%.
For Cc1ccccc1S(=O)(=O)Cc1ccc(C(=O)NCCCN2CCCC(C)C2)o1 (centres undefined), the Potency was inconclusive [inhibitor, partial curve, poor fit].
For CCOc1ccc(CCNC(=O)COC(=O)c2ccc(S(=O)(=O)N3CCCC3)cc2)cc1OCC, the “activity change, negative = inhibition” value was inactive: 5.62%.
In the case of Cc1cc([N+](=O)[O-])nn1CCCC(=O)NC1CCCCC1, the “activity change, negative = inhibition” value is reported as inactive: -7.51%.
For COc1ccc([N+](=O)[O-])cc1NS(=O)(=O)c1cc(C(=O)N2CCN(C)CC2)ccc1OC, the “activity change, negative = inhibition” value was inactive: -7.24%.
COc1ccc(OC)c(-c2c3cc(O)c(=O)cc-3oc3cc(O)c(O)cc23)c1 was tested, and the Potency was inconclusive [inhibitor, partial curve].
For COCCNC(=O)CC(=O)N/N=C/c1ccc(C(=O)OC)cc1, the “activity change, negative = inhibition” value was inactive: 17%.
With Cn1nnc2c[n+](CC(=O)c3ccc4ccccc4c3)cc(Br)c21 the Potency was inconclusive [inhibitor, partial curve, poor fit].
With Cc1csc(CN(C)C(=O)CC2C(=O)NCCN2Cc2ccc(F)c(F)c2)n1 (centres undefined) the Potency was inconclusive [inhibitor, partial curve].
In the case of CCC(=O)Nc1ccc2nc(SCCOc3ccc(C)cc3)sc2c1, the “activity change, negative = inhibition” value is reported as inactive: 0.414%.
In the case of O=C(CSc1nnc(-c2ccccc2)n1Cc1ccco1)Nc1ccc(S(=O)(=O)N2CCCC2)cc1, the “activity change, negative = inhibition” value is reported as inactive: -22.4%.
For CC(C)(C)c1ccc(C(=O)O[C@H]2[C@H](Cc3ccccc3)NS(=O)(=O)[C@H]3C[C@@H]4C=C[C@]23O4)cc1, the “activity change, negative = inhibition” value was inactive: -7.2%.
In the case of COC(=O)c1cccc(S(=O)(=O)N(Cc2ccco2)Cc2cc3cc(OC)c(OC)cc3[nH]c2=O)c1, the Potency is reported as inconclusive [inhibitor, partial curve].
CC1CC2(O)c3nonc3CCC2N1O (centres undefined) was tested, and the Potency was inconclusive [inhibitor, full curve].
With O=C(CCCN1C(=O)/C(=C/c2ccccc2)SC1=S)NCCCn1ccnc1 the Potency was inconclusive [inhibitor, single point].
O=C1c2cccc3cccc(c23)C(=O)N1CCN1CCN(CC(O)COCc2ccc(Cl)cc2)CC1 (centres undefined) was tested, and the “activity change, negative = inhibition” value was inactive: -1.83%.
For CCOc1cc(N2CCOCC2)c(OCC)cc1NC(=O)COC(=O)c1ccccc1C, the “activity change, negative = inhibition” value was inactive: -2.74%.
In the case of COc1cccc(-c2nc(-c3ccc4c(c3)NC(=O)CO4)cs2)c1, the Potency is reported as inconclusive [inhibitor, full curve].
With [O-][n+]1ccc(C(O)c2ccccc2)cc1 (centres undefined) the “activity change, negative = inhibition” value was inactive: -17.8%.
For CCCC1=C(C(=O)OCC)C(c2ccc(OC)c(CSc3ccccn3)c2)C(C#N)=C(N)O1 (centres undefined), the Potency was active: 31.6 µM.
In the case of CCc1ccc(OC(=O)c2cccnc2)cc1, the Potency is reported as inconclusive [inhibitor, partial curve, poor fit].
In the case of O=[N+]([O-])/C(=C\Nc1ccccc1Cl)S(=O)(=O)c1ccccc1, the Potency is reported as active: 39.8 µM.
With O=C(Nn1cnnc1)C1Cc2ccccc2CN1S(=O)(=O)c1ccc(F)cc1 (centres undefined) the “activity change, negative = inhibition” value was inactive: 3.88%.
In the case of C/C(=N/NS(=O)(=O)c1ccc(C)cc1)[C@H]1C[C@@H]1c1ccccc1, the Potency is reported as inconclusive [inhibitor, partial curve].
In the case of N#Cc1c(-n2cccc2C=O)sc2c1CCCC2, the Potency is reported as inconclusive [inhibitor, partial curve].
In the case of COc1ccc(C)cc1NC(=O)C1CCCN(S(=O)(=O)c2cccc3cccnc23)C1 (centres undefined), the “activity change, negative = inhibition” value is reported as inactive: 7.81%.
C[C@@H]1O[C@@H](OC[C@H]2O[C@@H](Oc3c(-c4ccc(O)c(O)c4)oc4cc(O)cc(O)c4c3=O)[C@H](O)[C@@H](O)[C@@H]2O)[C@H](O)[C@H](O)[C@H]1O was tested, and the Potency was inconclusive [inhibitor, partial curve].
With CC(C)(C)c1cc(C(=O)N2CCN(c3ncccn3)CC2)ccn1 the Potency was inconclusive [inhibitor, single point].
For Clc1ccc2[nH]c3c(c2c1)CCNC3, the Potency was inconclusive [inhibitor, partial curve].
In the case of CCOc1ccccc1CNC(=O)c1cc2c(=O)n(Cc3ccco3)ccc2nc1C, the Potency is reported as inconclusive [inhibitor, single point].
With COc1ccccc1CN1C[C@@H]2C[C@@H](c3[nH]c4c(C)cccc4c3C)N3CCC[C@@]23C1=O the “activity change, negative = inhibition” value was inactive: -13.9%.
